These are yes or no findings as the source states them, for the method shown. For some of these results: Binding seen in cells or lysates may run through a third protein. Some entries that bind do so weakly or less than the wild type. Each block holds one substance with its values, some of them ahead of it.
Legend:
[1] = molecular target: NEDD4, endogenous in HK-2 cells (human (endogenous in HK-2)) (UniProt P46934); assay: condition: only UBE2m KO HK-2 cells with the vector alone; proximity ligation; Duolink PLA on UBE2m KO HK-2 cells with only the vector introduced
[2] = molecular target: NEDD4, endogenous in HK-2 cells (human (endogenous in HK-2)) (UniProt P46934); assay: proximity ligation; Duolink PLA on UBE2m KO HK-2 cells with UBE2m WT reintroduced
[3] = molecular target: NEDD4, endogenous in HK-2 cells (human (endogenous in HK-2)) (UniProt P46934); assay: proximity ligation; Duolink In Situ Red kit on fixed HK-2 cells, control and COM-treated
[4] = molecular target: Ubiquitin-conjugating enzyme E2M (UBE2m), endogenous in HK-2 cells (human (endogenous in HK-2)) (UniProt P61081); assay: co-IP; endogenous proteins, lysates of COM-treated HK-2 cells; IP antibody overnight at 4 °C, protein A/G magnetic beads; IgG as negative control; both directions
[5] = molecular target: Recombinant human GST-PRMT1 (human) (UniProt Q99873); assay: pull-down; GST-PRMT1 or GST mixed with His-UBE2m overnight at 4 °C, then GST beads 3 h at 4 °C; immunoblot with GST and His antibodies; both purified
[6] = molecular target: Protein arginine methyltransferase 1 (PRMT1), endogenous in HK-2 cells (human (endogenous in HK-2)) (UniProt Q99873); assay: co-IP; endogenous proteins, lysates of COM-treated HK-2 cells; IP antibody overnight at 4 °C, protein A/G magnetic beads; IgG as negative control; both directions
[7] = molecular target: Protein arginine methyltransferase 1 (PRMT1), endogenous in HK-2 cells (human (endogenous in HK-2)) (UniProt Q99873); assay: proximity ligation; Duolink In Situ Red kit on fixed HK-2 cells, control and COM-treated

Chains of the proteins cited; added tags and fusions are not shown. Lines headed by an entry give the natural chain unless they say otherwise; changes in a name come on top. Residues count along the entry.
UniProt P46934: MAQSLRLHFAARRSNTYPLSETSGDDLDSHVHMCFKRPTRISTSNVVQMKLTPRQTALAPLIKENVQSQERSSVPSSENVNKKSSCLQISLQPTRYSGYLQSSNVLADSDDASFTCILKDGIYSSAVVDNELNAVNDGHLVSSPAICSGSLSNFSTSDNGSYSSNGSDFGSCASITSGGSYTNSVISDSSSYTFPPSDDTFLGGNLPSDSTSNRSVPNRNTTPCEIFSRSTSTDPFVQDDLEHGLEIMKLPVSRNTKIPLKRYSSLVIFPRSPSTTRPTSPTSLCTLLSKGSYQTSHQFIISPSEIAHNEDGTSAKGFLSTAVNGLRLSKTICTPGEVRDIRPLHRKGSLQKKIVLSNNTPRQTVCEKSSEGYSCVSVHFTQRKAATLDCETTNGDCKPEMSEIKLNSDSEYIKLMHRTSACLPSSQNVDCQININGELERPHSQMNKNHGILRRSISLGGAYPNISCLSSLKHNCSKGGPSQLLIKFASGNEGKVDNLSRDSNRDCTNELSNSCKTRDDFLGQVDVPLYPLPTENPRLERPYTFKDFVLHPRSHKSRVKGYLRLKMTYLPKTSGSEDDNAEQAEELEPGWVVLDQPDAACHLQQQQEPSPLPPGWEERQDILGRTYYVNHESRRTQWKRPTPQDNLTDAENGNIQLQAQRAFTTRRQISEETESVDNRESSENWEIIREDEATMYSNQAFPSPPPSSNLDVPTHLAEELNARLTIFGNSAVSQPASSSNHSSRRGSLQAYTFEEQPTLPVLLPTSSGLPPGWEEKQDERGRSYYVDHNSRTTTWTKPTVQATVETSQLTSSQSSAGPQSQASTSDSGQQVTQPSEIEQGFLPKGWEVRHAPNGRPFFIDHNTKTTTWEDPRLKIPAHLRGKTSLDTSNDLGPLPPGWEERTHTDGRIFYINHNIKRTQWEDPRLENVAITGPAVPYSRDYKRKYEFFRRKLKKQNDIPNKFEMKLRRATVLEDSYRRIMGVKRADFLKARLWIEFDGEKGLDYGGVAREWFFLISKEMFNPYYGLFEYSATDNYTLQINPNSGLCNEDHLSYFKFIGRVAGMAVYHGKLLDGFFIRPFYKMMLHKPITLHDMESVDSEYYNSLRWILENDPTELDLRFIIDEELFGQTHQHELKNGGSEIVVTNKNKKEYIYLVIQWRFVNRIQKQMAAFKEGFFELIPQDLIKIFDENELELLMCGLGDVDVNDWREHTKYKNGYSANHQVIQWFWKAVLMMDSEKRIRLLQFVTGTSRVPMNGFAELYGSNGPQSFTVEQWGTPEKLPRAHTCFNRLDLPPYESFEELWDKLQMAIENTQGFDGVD
UniProt P61081: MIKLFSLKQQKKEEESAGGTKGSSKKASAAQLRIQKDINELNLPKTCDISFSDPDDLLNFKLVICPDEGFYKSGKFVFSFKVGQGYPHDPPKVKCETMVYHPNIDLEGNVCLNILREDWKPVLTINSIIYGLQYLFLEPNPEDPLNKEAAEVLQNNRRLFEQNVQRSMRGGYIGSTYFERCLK
UniProt Q99873: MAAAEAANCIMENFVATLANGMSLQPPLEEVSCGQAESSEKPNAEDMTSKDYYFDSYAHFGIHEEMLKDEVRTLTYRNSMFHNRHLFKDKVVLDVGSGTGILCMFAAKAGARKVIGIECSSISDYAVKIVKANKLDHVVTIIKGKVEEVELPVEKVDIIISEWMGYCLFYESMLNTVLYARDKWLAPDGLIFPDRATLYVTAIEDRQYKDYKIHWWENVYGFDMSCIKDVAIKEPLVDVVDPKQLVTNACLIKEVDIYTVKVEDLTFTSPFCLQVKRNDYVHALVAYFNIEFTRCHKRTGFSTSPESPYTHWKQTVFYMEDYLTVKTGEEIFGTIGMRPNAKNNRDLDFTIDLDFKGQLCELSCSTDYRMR
UniProt P37231: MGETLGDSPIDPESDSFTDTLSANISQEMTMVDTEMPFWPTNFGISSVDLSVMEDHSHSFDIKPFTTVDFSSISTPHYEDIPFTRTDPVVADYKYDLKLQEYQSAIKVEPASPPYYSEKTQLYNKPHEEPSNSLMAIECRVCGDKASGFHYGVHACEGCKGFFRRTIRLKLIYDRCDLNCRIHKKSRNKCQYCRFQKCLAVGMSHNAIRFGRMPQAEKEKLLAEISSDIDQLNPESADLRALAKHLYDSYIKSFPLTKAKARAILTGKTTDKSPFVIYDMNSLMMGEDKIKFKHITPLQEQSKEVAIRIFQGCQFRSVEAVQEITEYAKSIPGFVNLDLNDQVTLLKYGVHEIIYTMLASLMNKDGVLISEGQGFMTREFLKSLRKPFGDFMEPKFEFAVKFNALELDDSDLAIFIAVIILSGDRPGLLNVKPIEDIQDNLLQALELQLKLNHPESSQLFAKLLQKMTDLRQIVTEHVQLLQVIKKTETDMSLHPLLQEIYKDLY
UniProt Q15843, residues 1-76: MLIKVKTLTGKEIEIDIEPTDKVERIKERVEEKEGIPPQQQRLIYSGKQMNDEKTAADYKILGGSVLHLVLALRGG

Substance: Peroxisome proliferator activated receptor γ (PPARγ), endogenous in HK-2 cells (from UniProt P37231 1-505)
binding [3]: binds

Substance: Recombinant human His-UBE2m (from UniProt P61081 1-183) (enzyme)
binding [5]: binds

Substance: Ubiquitin-conjugating enzyme E2M (UBE2m), endogenous in HK-2 cells (from UniProt P61081 1-183)
binding [6]: binds | binding [7]: binds

Other lines, results leading:

binding [1]: no binding | binding [2]: binds
Substance: NEDD8, endogenous in HK-2 cells (from UniProt Q15843 1-76)

binding [4]: binds
Substance: Protein arginine methyltransferase 1 (PRMT1), endogenous in HK-2 cells (from UniProt Q99873 1-371) (enzyme)

— article PMC12313907
